The source of these data is paper PMC12847774, “SERPINB3 enhances NPM1 sumoylation via inhibiting SENP3’s activity and promotes lung tumorigenesis” (Cell Death & Disease, 2025).

Protein sequences, listed by entry. Tags and fused reporters are not part of them. Lines headed by an entry give the natural chain unless they say otherwise; changes in a name come on top. Chains listed by the source or under a name are the forms on record and can include a tag or linker.
UniProt Q9H4L4: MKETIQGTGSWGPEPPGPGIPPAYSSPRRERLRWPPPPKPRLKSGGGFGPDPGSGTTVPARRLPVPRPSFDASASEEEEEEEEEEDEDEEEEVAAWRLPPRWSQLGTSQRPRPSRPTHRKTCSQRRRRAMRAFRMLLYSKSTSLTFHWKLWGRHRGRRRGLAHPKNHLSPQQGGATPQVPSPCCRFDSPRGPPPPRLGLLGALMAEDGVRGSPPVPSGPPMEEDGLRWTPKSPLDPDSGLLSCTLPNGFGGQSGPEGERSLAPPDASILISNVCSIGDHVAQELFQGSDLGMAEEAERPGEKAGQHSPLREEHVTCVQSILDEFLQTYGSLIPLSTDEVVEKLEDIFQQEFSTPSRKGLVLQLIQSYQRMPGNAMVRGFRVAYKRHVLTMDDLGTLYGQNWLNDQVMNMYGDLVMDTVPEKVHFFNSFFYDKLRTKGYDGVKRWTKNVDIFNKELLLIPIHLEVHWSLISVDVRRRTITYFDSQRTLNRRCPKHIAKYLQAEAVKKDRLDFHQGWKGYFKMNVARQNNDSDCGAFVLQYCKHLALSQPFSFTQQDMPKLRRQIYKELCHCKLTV
SENP3 Δ265-287 deletion mutant (Q9H4L4, form named): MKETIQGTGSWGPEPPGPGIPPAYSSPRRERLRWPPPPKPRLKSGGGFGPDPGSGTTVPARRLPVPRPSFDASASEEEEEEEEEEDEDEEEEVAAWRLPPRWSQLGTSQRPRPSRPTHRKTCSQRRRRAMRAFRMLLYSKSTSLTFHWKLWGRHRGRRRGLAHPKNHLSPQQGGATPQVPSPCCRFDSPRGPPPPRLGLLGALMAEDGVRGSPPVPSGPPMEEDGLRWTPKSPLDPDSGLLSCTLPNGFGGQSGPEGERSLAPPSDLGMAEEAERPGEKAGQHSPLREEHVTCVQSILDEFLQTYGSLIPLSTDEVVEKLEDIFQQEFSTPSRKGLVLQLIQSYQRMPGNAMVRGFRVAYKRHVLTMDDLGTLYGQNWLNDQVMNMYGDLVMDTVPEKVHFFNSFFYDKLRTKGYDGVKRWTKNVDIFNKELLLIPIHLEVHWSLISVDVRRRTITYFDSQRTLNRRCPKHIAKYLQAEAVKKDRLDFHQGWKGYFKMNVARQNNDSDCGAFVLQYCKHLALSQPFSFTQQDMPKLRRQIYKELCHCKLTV
UniProt P06748: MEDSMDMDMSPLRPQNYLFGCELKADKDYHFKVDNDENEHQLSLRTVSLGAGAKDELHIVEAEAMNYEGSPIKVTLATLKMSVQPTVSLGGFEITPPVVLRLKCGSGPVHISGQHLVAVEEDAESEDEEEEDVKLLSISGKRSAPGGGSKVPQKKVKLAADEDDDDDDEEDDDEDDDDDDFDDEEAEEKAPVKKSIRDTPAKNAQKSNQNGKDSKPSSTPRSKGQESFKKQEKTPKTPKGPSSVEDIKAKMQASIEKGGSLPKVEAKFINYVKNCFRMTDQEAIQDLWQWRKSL

In assay [1] the target is T1, Flag-SERPINB3 (HEK293T) (UniProt P29508).
T1 sequence: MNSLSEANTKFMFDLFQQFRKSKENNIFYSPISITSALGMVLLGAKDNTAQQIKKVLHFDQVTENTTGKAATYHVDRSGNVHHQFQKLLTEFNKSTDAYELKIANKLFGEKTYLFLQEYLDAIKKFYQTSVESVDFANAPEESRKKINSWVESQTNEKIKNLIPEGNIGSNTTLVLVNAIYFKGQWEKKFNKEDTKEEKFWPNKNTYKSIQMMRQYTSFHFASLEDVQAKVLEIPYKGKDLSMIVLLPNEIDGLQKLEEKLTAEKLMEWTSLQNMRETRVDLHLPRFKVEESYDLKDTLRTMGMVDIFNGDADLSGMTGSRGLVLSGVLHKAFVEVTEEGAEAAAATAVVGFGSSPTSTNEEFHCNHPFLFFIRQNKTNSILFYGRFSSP
Put plainly: SEC; lysate of HEK293T cells transfected with Flag-SERPINB3, HA-NPM1 and His-SENP3 loaded directly on Superose 6 Increase 10/300; fractions blotted. A general note: Size exclusion chromatography separates by hydrodynamic size, large species first.

In assay [2] the target is His-SENP3 (HEK293T) (UniProt Q9H4L4). Put plainly: pull-down + SEC; His-SENP3 enriched on Ni-NTA beads from lysate of HEK293T cells transfected with Flag-SERPINB3, HA-NPM1 and His-SENP3, eluted with 300 mM imidazole, then Superose 6 Increase 10/300 in 20 mM Tris-HCl pH 8.0, 150 mM NaCl, 1% glycerol; fractions blotted.
Assay [3] has as its target HA-NPM1 (HEK293T) (UniProt P06748). In words: SEC; lysate of HEK293T cells transfected with Flag-SERPINB3, HA-NPM1 and His-SENP3 loaded directly on Superose 6 Increase 10/300; fractions blotted.
In assay [4] the target is T2, Flag-SERPINB3 purified protein (UniProt P29508).
T2 sequence: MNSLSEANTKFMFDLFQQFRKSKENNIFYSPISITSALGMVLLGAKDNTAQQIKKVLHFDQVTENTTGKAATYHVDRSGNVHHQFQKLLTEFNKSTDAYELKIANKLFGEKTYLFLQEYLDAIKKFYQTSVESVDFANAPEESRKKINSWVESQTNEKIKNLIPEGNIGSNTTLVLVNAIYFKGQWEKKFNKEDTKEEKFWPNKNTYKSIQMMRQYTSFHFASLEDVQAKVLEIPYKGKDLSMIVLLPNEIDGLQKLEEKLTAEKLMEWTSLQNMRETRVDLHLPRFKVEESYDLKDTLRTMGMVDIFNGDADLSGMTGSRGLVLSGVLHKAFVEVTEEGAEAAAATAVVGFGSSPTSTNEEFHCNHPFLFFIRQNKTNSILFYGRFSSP
Put plainly: co-IP; in vitro immunoprecipitation with Flag antibody using purified recombinant proteins; both purified.

The target of assay [5] is nucleophosmin (NPM1), endogenous (human (endogenous in PC9, H1975, HCC4006)) (UniProt P06748). In words: SEC; lysate of PC9 cells overexpressing Flag-SERPINB3 on Superose 6 Increase 10/300; fractions blotted.
The target of assay [6] is T3, Flag-SERPINB3 (UniProt P29508).
T3 sequence: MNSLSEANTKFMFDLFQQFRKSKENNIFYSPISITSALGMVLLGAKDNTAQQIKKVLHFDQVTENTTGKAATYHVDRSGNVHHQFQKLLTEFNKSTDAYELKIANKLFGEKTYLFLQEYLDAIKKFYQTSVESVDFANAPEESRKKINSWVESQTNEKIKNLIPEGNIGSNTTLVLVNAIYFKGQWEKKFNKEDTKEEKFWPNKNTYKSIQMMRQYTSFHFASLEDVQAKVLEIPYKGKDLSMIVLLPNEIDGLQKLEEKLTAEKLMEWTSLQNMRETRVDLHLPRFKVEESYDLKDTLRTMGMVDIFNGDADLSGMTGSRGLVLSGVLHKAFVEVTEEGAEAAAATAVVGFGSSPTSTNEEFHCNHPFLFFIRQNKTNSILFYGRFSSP
The assay is described as above.

Assay [7] addresses T3, Flag-SERPINB3. Put plainly: co-IP; anti-Flag IP from nuclear fractions of PC9 cells overexpressing Flag-SERPINB3; blots for SENP3 and NPM1.
The target of assay [8] is T3, Flag-SERPINB3. Put plainly: co-IP; anti-Flag IP from whole lysates of PC9 cells overexpressing Flag-SERPINB3; protein A/G magnetic beads, IP buffer 50 mM Tris-HCl pH 8.0, 150 mM NaCl, 1 mM EDTA, 0.5% NP-40; blots for SENP3 and NPM1.
Assay [9] deals with T4, SERPINB3, endogenous (human (endogenous in PC9, H1975, HCC4006)) (UniProt P29508).
T4 sequence: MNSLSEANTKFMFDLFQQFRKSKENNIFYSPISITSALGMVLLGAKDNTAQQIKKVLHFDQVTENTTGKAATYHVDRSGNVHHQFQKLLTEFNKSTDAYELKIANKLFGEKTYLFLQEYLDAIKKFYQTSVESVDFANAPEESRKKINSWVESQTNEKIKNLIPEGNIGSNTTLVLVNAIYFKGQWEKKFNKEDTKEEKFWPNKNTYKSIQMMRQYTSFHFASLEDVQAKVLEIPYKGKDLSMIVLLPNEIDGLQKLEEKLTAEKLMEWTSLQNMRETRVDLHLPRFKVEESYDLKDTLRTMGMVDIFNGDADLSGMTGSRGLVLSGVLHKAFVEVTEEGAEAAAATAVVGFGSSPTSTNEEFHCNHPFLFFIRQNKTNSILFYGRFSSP
Put plainly: co-IP; IP of endogenous SERPINB3 or endogenous NPM1 from nuclear lysates of PC9, H1975 and HCC4006 cells; IgG as IP control; IP buffer 50 mM Tris-HCl pH 8.0, 150 mM NaCl, 1 mM EDTA, 0.5% NP-40.

For assay [10], the target named is T5, VN-Flag-SERPINB3 (UniProt P29508).
T5 sequence: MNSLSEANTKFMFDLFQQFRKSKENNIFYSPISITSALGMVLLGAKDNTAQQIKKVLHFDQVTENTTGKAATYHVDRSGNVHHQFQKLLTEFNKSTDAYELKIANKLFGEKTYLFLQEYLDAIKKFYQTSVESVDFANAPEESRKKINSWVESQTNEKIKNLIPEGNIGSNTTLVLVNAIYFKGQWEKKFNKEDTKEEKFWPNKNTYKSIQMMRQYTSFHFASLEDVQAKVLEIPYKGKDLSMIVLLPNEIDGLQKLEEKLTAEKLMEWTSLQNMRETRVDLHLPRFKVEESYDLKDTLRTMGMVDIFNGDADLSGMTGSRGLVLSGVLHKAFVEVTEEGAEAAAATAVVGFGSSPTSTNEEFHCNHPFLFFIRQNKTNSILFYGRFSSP
Put plainly: split reporter; BiFC with Venus fragments VN (1-173) and VC (155-239) in transfected PC9 cells, imaged after 36-48 h.

In assay [11] the target is VN-HA-NPM1 (UniProt P06748). Described as above.

Results are given in words; binding and its absence hold for the method and conditions named. For part of these data: In cells and extracts the contact can be indirect. Some entries that bind do so weakly or less than the wild type. For part of these data: Where a sequence is shown, tags or fusion partners need not be part of it.

In the case of “HA-NPM1 (HEK293T) (from UniProt P06748 1-294)”, the binding result in [1] and in [2] was “binds” each time.
“His-SENP3 (HEK293T) (from UniProt Q9H4L4 1-574) (enzyme)”: the binding entry in assay [3] and in assay [1] was “binds” each time.
Take “SENP3 Δ265-287 deletion mutant (from UniProt Q9H4L4 1-574) (enzyme)”: the binding entry in [4] was “no binding”.
In the case of “SUMO-specific proteinase 3 (SENP3), endogenous (from UniProt Q9H4L4 1-574) (enzyme)”, the binding result in [5], in assay [6], in assay [7], in assay [8] and in assay [9] was “binds” each time.
Turning to VC-HA-NPM1 (from UniProt P06748 1-294), the binding result in [10] is given as “binds”.
As to “VC-HA-SENP3 (from UniProt Q9H4L4 1-574) (enzyme)”, the binding entry in assay [11] and in assay [10] was “binds” in each case.
Consider “nucleophosmin (NPM1), endogenous (from UniProt P06748 1-294)”, for which the binding entry in assay [6], in [7], in assay [8] and in [9] was “binds” throughout.

B1: Flag-SERPINB3 purified protein (natural protein, UniProt P29508 1-390, looked up)
chain: MNSLSEANTKFMFDLFQQFRKSKENNIFYSPISITSALGMVLLGAKDNTAQQIKKVLHFDQVTENTTGKAATYHVDRSGNVHHQFQKLLTEFNKSTDAYELKIANKLFGEKTYLFLQEYLDAIKKFYQTSVESVDFANAPEESRKKINSWVESQTNEKIKNLIPEGNIGSNTTLVLVNAIYFKGQWEKKFNKEDTKEEKFWPNKNTYKSIQMMRQYTSFHFASLEDVQAKVLEIPYKGKDLSMIVLLPNEIDGLQKLEEKLTAEKLMEWTSLQNMRETRVDLHLPRFKVEESYDLKDTLRTMGMVDIFNGDADLSGMTGSRGLVLSGVLHKAFVEVTEEGAEAAAATAVVGFGSSPTSTNEEFHCNHPFLFFIRQNKTNSILFYGRFSSP
notes: SERPINB3; cloned into pET-28a(+) between BamHI and HindIII; the methods name only pET-28a (+)-SERPINB3; also called SCCA1; pET-28a (+)-SERPINB3; source: E. coli BL21(DE3), purified (Ni-NTA)
As to B1, the binding entry in [2] was “binds”.
